# In all, about 18,000 sequences were measured (“TetR repression strength (sort-seq, GFP reporter)”: median about 0.23, highest 2% from about 0.68 on). The list shows a part of the results.
# Target: TetR (class B, Tn10) (UniProt P04483)
# Assay: TetR repression strength (sort-seq, GFP reporter) (relative to tetO2 = 1); higher = stronger repression
# Settings: E. coli
# Procedure, shortened: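 Repression strength was calculated by subtracting the read-weighted mean bin from the top bin index plus one and dividing by the unaltered operator's value. The plasmid library was low-copy in E. coli SIG10-MAX, with eight randomized operator positions between a constitutive promoter and sfGFP and constitutive TetR. Cultures grew 5 h at 37 °C in LB containing 50 µg/mL chloramphenicol before 10^6 cells were sorted by FACS into 13 fluorescence bins, each sequenced on Illumina. Three independent transformations were averaged for members having ≥30 reads in all replicates and a CV ≤0.5.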
# Sequence of UniProt P04483 (P04483 whole entry): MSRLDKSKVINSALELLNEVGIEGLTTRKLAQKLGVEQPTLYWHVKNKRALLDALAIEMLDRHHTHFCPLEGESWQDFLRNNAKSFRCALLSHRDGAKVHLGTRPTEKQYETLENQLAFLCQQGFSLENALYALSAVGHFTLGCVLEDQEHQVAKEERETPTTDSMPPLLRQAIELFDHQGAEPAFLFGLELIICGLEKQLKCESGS
row,Sequence,TetR repression strength
1,TCCCTCCAAGTCCCTGAGA,0.366
2,TCCCTTCAAGTGCGGGAGA,0.0975
3,TCCCATTCAGTCTTAGAGA,0.417
4,TCCCGTCCAGTGGGTGAGA,0.21
5,TCCCGGATAGTCCATGAGA,0.194
6,TCCCAATCAGTGTTAGAGA,0.617
7,TCCCTCGAAGTGAGTGAGA,0.472
8,TCCCCCAGAGTGCGTGAGA,0.195
9,TCCCTGATAGTTTTCGAGA,0.301
10,TCCCGTAGAGTGTCGGAGA,0.207
11,TCCCCACAAGTGCTCGAGA,0.37
12,TCCCTCGAAGTGAACGAGA,0.187
13,TCCCTCGCAGTTTACGAGA,0.142
14,TCCCCCTGAGTATGAGAGA,0.33
15,TCCCAACGAGTTGACGAGA,0.256
16,TCCCGAGGAGTGGTTGAGA,0.222
17,TCCCCGGGAGTGCGTGAGA,0.279
18,TCCCGCGCAGTCTAGGAGA,0.0919
19,TCCCCTTTAGTTCAAGAGA,0.39
20,TCCCCCAGAGTAATAGAGA,0.528
21,TCCCGTTTAGTATTCGAGA,0.341
22,TCCCCAGTAGTACGAGAGA,0.318
23,TCCCCATGAGTGAGCGAGA,0.169
24,TCCCGGTTAGTGGAGGAGA,0.169
25,TCCCTACCAGTGATAGAGA,0.94
26,TCCCACACAGTTGTCGAGA,0.222

row,Sequence,TetR repression strength
1,TCCCTATAAGTCGTCGAGA,0.307
2,TCCCAGGAAGTTTCAGAGA,0.104
3,TCCCATACAGTAACCGAGA,0.199
4,TCCCGCTCAGTACCCGAGA,0.195
5,TCCCGCACAGTATTCGAGA,0.267
6,TCCCTGAGAGTACAAGAGA,0.322
7,TCCCCGGGAGTTATGGAGA,0.274
8,TCCCCACAAGTCGCAGAGA,0.18
9,TCCCGAATAGTGTTGGAGA,0.203
10,TCCCGGAGAGTAATAGAGA,0.242
11,TCCCCGTGAGTTTATGAGA,0.426
12,TCCCGTCCAGTAGCAGAGA,0.338
13,TCCCGAACAGTGCACGAGA,0.169
14,TCCCAATGAGTACCGGAGA,0.195
15,TCCCGCAGAGTGTGTGAGA,0.0673
16,TCCCGAGGAGTAGTGGAGA,0.247
17,TCCCAAAGAGTGGGCGAGA,0.0498
18,TCCCCTCGAGTAGAAGAGA,0.28
19,TCCCTCGGAGTGTCTGAGA,0.173
20,TCCCGCACAGTAAGTGAGA,0.229
21,TCCCTGCCAGTCTAGGAGA,0.415
22,TCCCTCGTAGTGGTGGAGA,0.176
23,TCCCTACGAGTAAGGGAGA,0.178
24,TCCCCTTTAGTCGTGGAGA,0.155
25,TCCCTTTCAGTGCTGGAGA,0.363
26,TCCCGGCGAGTAGGAGAGA,0.291

row,Sequence,TetR repression strength
1,TCCCTTGCAGTTTCGGAGA,0.461
2,TCCCCCTTAGTACCTGAGA,0.315
3,TCCCTGTCAGTAATTGAGA,0.419
4,TCCCGGCGAGTAGACGAGA,1.03
5,TCCCTATTAGTTGTCGAGA,0.278
6,TCCCTGTCAGTGTATGAGA,0.395
7,TCCCTAGGAGTTGGTGAGA,0.302
8,TCCCGAATAGTGGTAGAGA,0.389
9,TCCCGCAGAGTACGGGAGA,0.371
10,TCCCTAAAAGTGGGAGAGA,0.203
11,TCCCATGGAGTCTATGAGA,0.139
12,TCCCATCGAGTGTACGAGA,0.43
13,TCCCAATAAGTGTGTGAGA,0.369
14,TCCCACATAGTCGCGGAGA,0.173
15,TCCCGACGAGTGCGCGAGA,0.0423
16,TCCCTGTAAGTGATGGAGA,0.226
17,TCCCGGGGAGTGCAGGAGA,0.176
18,TCCCATAGAGTTCGGGAGA,0.161
19,TCCCGAGCAGTGATCGAGA,0.708
20,TCCCGACTAGTGTAAGAGA,0.311
21,TCCCTTTGAGTGGATGAGA,0.185
22,TCCCTTGGAGTGCCGGAGA,0.477
23,TCCCCTTTAGTGGTGGAGA,0.326
24,TCCCAATGAGTAACAGAGA,0.19
25,TCCCCAACAGTCTTGGAGA,0.692
26,TCCCCGTTAGTAGGCGAGA,0.153

row,Sequence,TetR repression strength
1,TCCCCTTAAGTCAGTGAGA,0.252
2,TCCCTTATAGTGCAGGAGA,0.0183
3,TCCCATTTAGTGCAAGAGA,0.382
4,TCCCTAGCAGTGACGGAGA,0.2
5,TCCCTGGCAGTGTGGGAGA,0.0722
6,TCCCTATGAGTCGTAGAGA,0.147
7,TCCCTAGTAGTACTCGAGA,0.224
8,TCCCTAGGAGTATATGAGA,0.0303
9,TCCCACCGAGTCGCAGAGA,0.397
10,TCCCTATGAGTTATAGAGA,0.439
11,TCCCTGTTAGTAAGGGAGA,0.355
12,TCCCCGATAGTGTGAGAGA,0.127
13,TCCCATCTAGTTAAAGAGA,0.415
14,TCCCTCTGAGTGCAGGAGA,0.166
15,TCCCACAGAGTCACAGAGA,0.174
16,TCCCGGGGAGTCAAGGAGA,0.21
17,TCCCGTGCAGTCGCCGAGA,0.207
18,TCCCCCGGAGTGCTCGAGA,0.621
19,TCCCTACCAGTTTGGGAGA,0.0908
20,TCCCTCTGAGTGAGGGAGA,0.145
21,TCCCTGTCAGTCTTGGAGA,0.222
22,TCCCTCAGAGTAAAGGAGA,0.218
23,TCCCCGCTAGTATGGGAGA,0.297
24,TCCCGAGAAGTTGAGGAGA,0.176

# — a collection of fitness landscapes (doi:10.1038/s41467-024-54723-y)
